Laboratory results published in paper PMC4336329 (PLoS ONE, 2015).
The campaign covered roughly 310,000 compounds. About 14,000 (4.5%) showed an effect of 50% or more. The effect is printed as a negative number. Some of the results follow.

target: human ether-à-go-go-related gene (hERG) potassium channel (human, UniProt Q12809); test: primary screen, population patch clamp on CHO cells stably expressing hERG
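Further: peak tail current of the secondary pulse compared with the same well before compound.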

human ether-à-go-go-related gene (hERG) potassium channel, sequence (Q12809 whole entry, looked up): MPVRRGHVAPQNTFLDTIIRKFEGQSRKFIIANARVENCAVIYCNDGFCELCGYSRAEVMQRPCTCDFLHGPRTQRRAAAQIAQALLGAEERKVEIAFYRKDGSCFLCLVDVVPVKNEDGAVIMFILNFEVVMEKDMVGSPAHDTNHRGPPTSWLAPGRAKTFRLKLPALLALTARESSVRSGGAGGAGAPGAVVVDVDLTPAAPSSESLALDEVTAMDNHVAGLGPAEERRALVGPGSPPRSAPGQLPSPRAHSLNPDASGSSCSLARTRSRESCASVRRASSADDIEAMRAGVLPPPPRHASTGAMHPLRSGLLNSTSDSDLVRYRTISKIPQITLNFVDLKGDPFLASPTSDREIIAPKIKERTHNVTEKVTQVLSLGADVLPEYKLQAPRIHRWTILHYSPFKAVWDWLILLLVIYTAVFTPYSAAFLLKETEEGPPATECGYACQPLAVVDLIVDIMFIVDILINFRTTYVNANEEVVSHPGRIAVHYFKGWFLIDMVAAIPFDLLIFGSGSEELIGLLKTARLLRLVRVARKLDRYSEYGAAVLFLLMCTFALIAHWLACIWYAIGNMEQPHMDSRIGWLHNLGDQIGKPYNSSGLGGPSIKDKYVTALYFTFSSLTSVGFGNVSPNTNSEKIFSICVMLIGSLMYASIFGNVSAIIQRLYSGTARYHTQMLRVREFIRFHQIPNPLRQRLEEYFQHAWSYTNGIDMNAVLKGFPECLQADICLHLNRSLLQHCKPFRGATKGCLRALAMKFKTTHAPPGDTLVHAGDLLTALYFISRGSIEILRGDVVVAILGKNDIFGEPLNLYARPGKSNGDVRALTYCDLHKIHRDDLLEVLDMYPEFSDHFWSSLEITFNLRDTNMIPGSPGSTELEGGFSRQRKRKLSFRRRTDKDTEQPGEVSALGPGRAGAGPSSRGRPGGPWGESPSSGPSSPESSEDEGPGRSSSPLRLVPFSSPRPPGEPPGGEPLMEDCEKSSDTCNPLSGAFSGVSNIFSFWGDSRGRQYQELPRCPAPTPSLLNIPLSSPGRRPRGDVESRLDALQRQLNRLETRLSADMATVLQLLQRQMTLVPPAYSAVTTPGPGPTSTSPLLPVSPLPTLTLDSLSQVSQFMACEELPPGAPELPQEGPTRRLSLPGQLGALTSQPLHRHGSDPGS

Structure (SMILES)	hERG current change (%, negative = inhibition) at 10uM [%]
Oc1c(N=NC(=S)Nc2ccccc2F)c2ccccc2n1Cc1ccc(Cl)cc1	20
CCC(=O)NC(=S)Nc1ccc(N2CCN(C(=O)c3ccc(Cl)cc3)CC2)cc1	-34.1
COc1cccc(C2=CC(c3ccc(C)cc3)n3ncnc3N2)c1 (centres unmarked)	-52.4
COCCCNC(=O)c1cc2cc([N+](=O)[O-])cc(OC)c2oc1=O	13.1
O=C(NCc1ccccc1)C1(c2ccccc2)CCN(S(=O)(=O)c2ccccc2)CC1	-17.1
COc1ccc(NS(=O)(=O)c2ccc(C)c(C(=O)N(C)CC(=O)Nc3cccc(OC)c3)c2)cc1	-9.42
S=c1[nH]nc([C@@H]2C[C@H]2c2ccccc2)n1-c1ccccc1Cl	11.1
COc1ccc2[nH]c(C)c(C(=O)CN(C)C)c2c1	7.78
O=C(NCCO)c1ccc(CSc2nc3ccccc3[nH]2)cc1	3.89
O=C1CN(C(=O)c2c(F)cccc2F)C(c2ccc(F)cc2)c2cc(Br)ccc2N1 (centres unmarked)	-35.8
O=C(NC1(C(F)(F)F)N=C2SCCN2C1=O)C1CCCCC1 (centres unmarked)	12.5
CC1CN(C(=O)/C=C/c2cccc([N+](=O)[O-])c2)CC(C)O1 (centres unmarked)	-15.4
Cc1cccc(S(=O)(=O)Nc2cccc3c2C(=O)c2ccccc2-3)c1	6.45
CC(NC(=S)NCc1ccc(F)cc1)C12CC3CC(CC(C3)C1)C2 (centres unmarked)	18.3
O=C1NC(=O)N(c2ccccc2F)C(=O)/C1=C/c1ccc(Oc2ccc([N+](=O)[O-])cn2)cc1	-0.542
COc1cccc(=O)c2c(C)n(C)c(C)c12	-24.7
Cc1cccc(C)c1NC(=O)c1cccc(N2C(=O)C3CCC(C)CC3C2=O)c1 (centres unmarked)	17.3
COc1ccc(N2CC(=O)N(c3ccc(OC)c(OC)c3)CC2=O)cc1OC	2.26
Cc1ccnc(SCc2ccc(C(=O)O)cc2)n1	11.1

Structure (SMILES)	hERG current change (%, negative = inhibition) at 10uM [%]
O=c1[nH]c(CN2CC=C(c3ccccc3)CC2)nc2cc(C(F)(F)F)ccc12	-8.61
CC(C)(C)c1nc2ccc(NS(=O)(=O)c3ccc(F)c(F)c3F)cc2[nH]1	10.6
COc1ccc(N2CC(C(=O)Nc3cccc(OC(C)C)c3)CC2=O)cc1 (centres unmarked)	-9.29
O=S(=O)(NC1CC1)c1ccc(S(=O)(=O)N2CCN3CCCC3C2)cc1 (centres unmarked)	-10
Cc1ccccc1NC(=O)c1cccc(S(C)(=O)=O)c1	16
COc1ccc(-n2nc(C(=O)NCC(=O)N3CC(C)CC(C)C3)c3ccccc3c2=O)c(OC)c1 (centres unmarked)	-6.68
Cc1ccc(CN2CC(=O)N3[C@H]4c5ccccc5OC[C@@H]4[C@H](c4ccccc4)[C@]3(C)C2=O)cc1	19.3
CCN(CC)C(=O)Cc1cc(C(=O)O)c2ccccc2n1	14
CCN1CCN(c2nc3c(c(=O)[nH]2)CCCC3)CC1	-1.13
CCN1CCc2c(C#N)c(N3CCCCC3)nc(N3CCOCC3)c2C1	-19.7
CCCCn1c(C(C)NC(=O)CC)nc2ccccc21 (centres unmarked)	-21.9
Cc1ccc2c(c1)c1nnc(SCC(=O)Nc3ccccc3C(F)(F)F)nc1n2CC(=O)O	11.2
O=C1CN(C(=O)c2ccccc2)C(c2ccccc2)c2cc(F)ccc2N1 (centres unmarked)	-75.1
CC(N=Cc1cc([N+](=O)[O-])ccc1O)c1ccccc1 (centres unmarked)	11.7
COc1cccc(-c2nc(CS(=O)(=O)CC(=O)Nc3cccc(C)c3C)c(C)o2)c1	17.7
CCCNC(=O)NC(=O)CSc1nc2ccccc2c(=O)n1Cc1ccncc1	-36.4
Cn1c(=O)oc2cc(S(=O)(=O)NCCc3ccccc3)ccc21	-14
O=C(Nc1nnc(C2CCCC2)s1)C1CCC1	-0.134
COc1ccc(S(=O)(=O)Cc2ccc(C(=O)N3CCOCC3)o2)cc1	1.23

Structure (SMILES)	hERG current change (%, negative = inhibition) at 10uM [%]
CCNC(=S)N(CCc1ccc(OC)c(OC)c1)Cc1cc2cc(OC)ccc2[nH]c1=O	-56.9
CCC(O)(c1ccccc1)C(CN1CCOCC1)c1ccccc1.Cl (centres unmarked)	26.1
CC1=C(C)[N+](=O)C2(O)CCCCC2(C)N1[O-] (centres unmarked)	10.8
Cc1ccc(C(=O)N/N=C2\CCCc3ccccc32)c(C)c1	7.19
CC1CCCN(C2(O)C(=O)Nc3ccc(Br)cc32)C1 (centres unmarked)	-5.89
COc1ccccc1NC(=O)N1CCCC1C(=O)NC12CC3CC(CC(C3)C1)C2 (centres unmarked)	7.98
O=C1NC(=Nc2ccccc2)CS1	15.7
C/C(=N\Nc1cc(C)nc(NCc2ccccc2)n1)c1cccc([N+](=O)[O-])c1	13.2
O=C(Nc1ccccc1)Nc1ccc(S(=O)(=O)N2CCCCC2)cc1	9.74
CC(/C=N\NC(=O)c1cccnc1)c1ccccc1 (centres unmarked)	4.58
Cc1ccccc1-n1c(O)c(/C=N/NC(=O)c2ccccc2O)c(=O)[nH]c1=S	12.2
CSc1ncc(CN2CCC(C(=O)Nc3cccc(-c4cscn4)c3)CC2)cn1	-35.7
Nc1cc(N)nc(SCC(=O)Nc2ccccc2N2CCOCC2)n1	2.73
CCOC(=O)c1cccc(OS(=O)(=O)Cc2ccccc2)c1	-21.8
CC(C)(C=O)Cc1cc(C(C)(C)C)c(O)c(C(C)(C)C)c1	-13.6
Cc1csc(=O)n1CC(=O)OCC(=O)NNC(=O)c1ccccc1	17.5
Cc1ccc(-c2nnc(COC(=O)c3cccs3)o2)cc1	-13.7
COc1cc(C2NC(=S)NC(C)=C2C(=O)Nc2cc(C)cc(C)c2)ccc1O (centres unmarked)	19.6
